In PubChem BioAssay AID686978 (National Center for Advancing Translational Sciences (NCATS), 2013):
In all, about 420,000 compounds went through this assay and about 64,000 (15%) were called active. Inconclusive results, whose numbers are uncertain, are shown with a selection of clear calls. The call rests on the fitted dose curve; in most records, active means well fitted inhibition curve with a large enough effect; inconclusive means small, poorly fitted or top-dose-only effect; inactive means flat fitted curve, though single readings scatter. Potencies of inconclusive entries are left out as doubtful fits.

Assay: qHTS for Inhibitors of human tyrosyl-DNA phosphodiesterase 1 (TDP1): qHTS in cells in absence of CPT; further: nearly all actives have a fitted effect of over 55% in size
Conditions: DT40 Tdp1-/- hTDP1 cells, no CPT, ATP luminescence, 48 h; activity change, negative = growth inhibition: at 46.2 µM (top of the series) unless noted
Procedure, shortened: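 Luminescent ATP content (CellTiter-Glo) served as the growth readout. Knockout chicken DT40 cells expressing human TDP1 were exposed to compounds without camptothecin for a minimum 48 hr at 37 °C.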
On the % scale 0 is the no-effect control and ±100 the full control effect; potency means the concentration at half of the fitted maximal effect; tags describe the fitted curve by direction and shape.

Row | SMILES | Potency | activity change, negative = growth inhibition
1 | COc1cc2[nH]c(=O)n(Cc3ccc(C(=O)NC4CCN(Cc5ccccc5)CC4)cc3)c(=O)c2cc1OC | inconclusive [inhibitor, partial curve, poor fit] | –
2 | COc1cc(/C=N/NC(N)=O)ccc1OCC(=O)Nc1ccc(C)c(C)c1 | inactive | –
3 | C[C@H](CO)N1C[C@H](C)[C@@H](CN(C)S(=O)(=O)c2cccs2)Oc2ccc(NC(=O)NC3CCCCC3)cc2C1=O | inconclusive [inhibitor, partial curve] | –
4 | CN(C)C(CNC(=O)c1cccc(S(=O)(=O)NCc2ccccc2)c1)c1ccccc1 (stereo not given) | inconclusive [inhibitor, single point] | –
5 | COc1ccc(OC)c(-c2noc(N3CCN(c4cccc(C)c4C)CC3)n2)c1 | inactive | –
6 | COc1ccccc1NS(=O)(=O)CC12CCC(CC1=O)C2(C)C (stereo not given) | inactive | –
7 | CC(=O)c1ccc(NC(=O)Cn2nc(C(F)(F)F)c3c2CCCC3)cc1 | – | inconclusive: -32.7% [inhibitor]
8 | C=CCc1cc(/C=C/c2nc(O)c([N+](=O)[O-])c(=O)[nH]2)cc(OC)c1O | inactive | –
9 | Cc1ccc(NC(=O)CSC2=C(C#N)C(c3ccco3)CC(=O)N2)cc1 (stereo not given) | inconclusive [inhibitor, single point] | –
10 | CCC1CN(CCNC(=O)c2ccc3c(c2)OCO3)Cc2cc(OC)ccc2O1 (stereo not given) | inconclusive [inhibitor, single point] | –
11 | O=C(OCc1ccccc1)N1Cc2ccnnc2CC1c1ccccc1Br (stereo not given) | inconclusive [inhibitor, single point] | –
12 | O=C(NC(CO)Cc1ccc([N+](=O)[O-])cc1)C(Cl)Cl (stereo not given) | active: 9.2 µM | –
13 | Cc1ccc2occ(C(=O)c3ccco3)c(=O)c2c1 | inconclusive [inhibitor, single point] | –
14 | Cc1cc2c(c(N)n1)c(=O)oc1ccccc12 | inconclusive [inhibitor, partial curve, poor fit] | –
15 | CCSc1nn(CC(=O)Nc2cccc(Cl)c2)c(N)c1S(=O)(=O)c1ccc(OC)cc1 | inconclusive [inhibitor, single point] | –
16 | COc1ccc(-c2sc3ccccc3c2-c2ccc(O)cc2)cc1 | inconclusive [inhibitor, single point] | –
17 | COc1ccc(NC(=O)CSc2ccc3c4c(cccc24)C(=O)c2ccccc2-3)cc1 | inconclusive [inhibitor, single point] | –
18 | COc1cccc(C(NC(C)=O)c2nc(-c3cccc(C(C)C)c3)cs2)c1 (stereo not given) | inconclusive [inhibitor, single point] | –
19 | COc1ccc(S(=O)(=O)N2N=C(c3cccc(NS(C)(=O)=O)c3)CC2c2ccco2)cc1 (stereo not given) | inconclusive [inhibitor, single point] | –
20 | NS(=O)(=O)c1ccc(CCNC(=O)C(=O)Nc2cc3c4c(c2)CC(=O)N4CCC3)cc1 | inactive | –
21 | COc1ccc(C(=O)C2CCN(C(=O)c3ccc(F)cc3)CC2)cc1 | inconclusive [inhibitor, partial curve] | –
22 | CCC(C)n1c(/C=C/c2ccccc2)nc2ccccc21 (stereo not given) | inconclusive [inhibitor, single point] | –
23 | C=CCOc1ccc(/C=N/NC(=O)c2c(C)nc3ccc(Cl)cn23)cc1 | inconclusive [inhibitor, single point] | –

Row | SMILES | Potency | activity change, negative = growth inhibition
24 | Cc1ccc(S(=O)(=O)N2CCC(=O)CC2)cc1 | inactive | –
25 | CCCCc1cc(=O)oc2cc(OCC(=O)NCc3ccccn3)c(Cl)cc12 | inactive | –
26 | CCCCNC(=O)c1c(CSc2ccc(Cl)cc2)noc1C(=O)NCc1ccccc1 | inconclusive [inhibitor, single point] | –
27 | COc1ccc2c(c1)c(=O)c(C(=O)c1ccccc1)cn2Cc1ccccc1 | inactive | –
28 | COc1cccc(C#CC2=CC(=O)CC(C)(C)C2)c1 | active: 2.91 µM | –
29 | O=C(/C=C/c1ccc(Cl)cc1)NCc1ccco1 | inconclusive [inhibitor, full curve, poor fit] | –
30 | CCCCN(CC(=O)Nc1cccc(S(=O)(=O)N2CCCC2)c1)Cc1nc2ccccc2c(=O)[nH]1 | inconclusive [inhibitor, single point] | –
31 | COC(=O)CC1Oc2ccc(C)cc2-n2cc(-c3ccc(C)cc3)nc21 (stereo not given) | active: 13 µM | –
32 | Cc1ccc(CSc2oc(-c3cccs3)nc2S(=O)(=O)c2ccc(C)cc2)cc1 | active: 5.17 µM | –
33 | OC1(Cc2cc(-c3ccccc3)no2)CCN(CCCc2ccccc2)CC1 | inconclusive [inhibitor, single point] | –
34 | C=CCn1cnc2c(nnn2Cc2ccc(F)cc2)c1=O | inactive | –
35 | O=C(COc1cccc2ccccc12)NNC(=O)c1cnccn1 | active: 16.4 µM | –
36 | COc1ccc(S(=O)(=O)N2CCCC2)c(C)c1C | inconclusive [inhibitor, partial curve] | –
37 | CCc1ccc(NC(=O)Cn2c(=O)n(-c3cc(C)cc(C)c3)c(=O)c3oc4ccccc4c32)cc1 | inactive | –
38 | O=C(COC(=O)C1Cc2ccccc2CN1C(=O)c1ccccc1)Nc1ccc(SC(F)F)cc1 (stereo not given) | inconclusive [inhibitor, single point] | –
39 | O=CNCc1nc2ccccc2n1CCc1ccccc1 | inactive | –
40 | CC12CCC(=O)N1C(C(=O)N1CCN(c3ccccc3)CC1)CS2 (stereo not given) | inactive | –
41 | CCCN(CCC)C(=O)Cn1c(=O)n(Cc2ccc(C(=O)NCCc3ccc(Cl)cc3)cc2)c(=O)c2ccccc21 | – | inconclusive: -31.9% [inhibitor]
42 | Cc1nn(-c2ccc(F)cc2F)c2c1-c1nc(N3CCCC3)ncc1CC2 | inconclusive [inhibitor, single point] | –
43 | COc1ccccc1Cn1cc(C(=O)c2ccc(C)cc2)c(=O)c2cc(F)cc(F)c21 | inactive | –
44 | CC1C/C(=N/NC(=O)c2cccc(F)c2)c2ccc(O)cc2C1 (stereo not given) | inconclusive [inhibitor, single point] | –
45 | Cc1ccc(N(CC(=O)N2CCc3ccccc3C2)S(C)(=O)=O)cc1 | inconclusive [inhibitor, single point] | –
